Hit rate of the full screen: of about 48,000 compounds, about 1,200 (2.5%) were called active. About 2% were inconclusive and are not listed.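 The calls were made as follows: active = activation of at least 60% and not above a set upper limit (about 1 call in 100 departs from these limits); inconclusive = activation of 40% to 60%, or above that upper limit; inactive = activation under 40%.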 This is one part of the list.
These compounds were tested against Probable G-protein coupled receptor 32 (Homo sapiens) (UniProt O75388) (assay: qHTS for Agonists of Human Resolvin D1 Receptor DRV1). Conditions: CHO-K1 GPR32 beta-arrestin PathHunter luminescence, 90 min; at 76.9 µM; hits give high values; zero percent set by DMSO-only wells.
UniProt O75388, sequence (O75388 whole entry, looked up): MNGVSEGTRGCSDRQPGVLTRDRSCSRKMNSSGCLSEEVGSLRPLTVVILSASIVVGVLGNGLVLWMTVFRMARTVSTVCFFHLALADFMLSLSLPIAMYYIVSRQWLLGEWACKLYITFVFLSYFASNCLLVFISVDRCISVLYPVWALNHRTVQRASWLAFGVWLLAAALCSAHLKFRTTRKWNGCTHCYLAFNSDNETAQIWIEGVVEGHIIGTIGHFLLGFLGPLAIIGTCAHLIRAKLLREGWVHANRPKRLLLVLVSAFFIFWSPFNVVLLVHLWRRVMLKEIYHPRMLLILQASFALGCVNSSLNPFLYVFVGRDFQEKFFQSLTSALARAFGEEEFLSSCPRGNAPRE
Outline: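 Cells are plated overnight, treated with compounds in DMSO for 90 minutes at 37 °C, and developed with PathHunter detection reagent for 1 hour before luminescence is read; signal reflects beta-arrestin binding to GPR32 in engineered CHO-K1 cells.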
Also: 0% is about no effect.

activation, inactive:
CC(C)Oc1ccc(C(=O)Nc2nonc2-c2ccc(OC(C)C)cc2)cc1 4.87%
CCc1ccccc1N1C(=O)N(CC(=O)c2ccc(OC)cc2)c2ccccc2S1(=O)=O 8.49%
CCc1cccc(NC(=O)Cn2nc3c4cc(F)ccc4n(Cc4cccc(C)c4)cc-3c2=O)c1 -1.95%
CCOC(=O)c1cc(C)n(CC2CCC(C(=O)Nc3cc(OC)cc(OC)c3)CC2)c1C (configuration not stated) -11.9%
COc1cc(NC(=O)CC(c2cccs2)N2Cc3ccccc3C2=O)cc(OC)c1OC (configuration not stated) 6.55%
CCCNC(=O)c1cnc2c(-c3ccc(OCC)c(OCC)c3)c(C)nn2c1-c1ccccc1 4.26%
Clc1cccc(CSc2nnc(C3CCNCC3)o2)c1 -6.72%
CC(C)n1c(=N)c(C(=O)NC2CCCCC2)cc2c(=O)n3ccccc3nc21 13.1%
CCN(CCCNC(=O)Cn1ncc2c([nH]c3ccc(C)cc32)c1=O)Cc1ccccc1 8.34%
COc1ccc(NC(=O)C(=O)NCc2ccco2)cc1 -2.16%
COc1cccc(CN(C(=O)c2cccc(C)c2)C2CCS(=O)(=O)C2)c1 (configuration not stated) -3.21%
CC(=O)c1ccc(NC(=O)Cn2nc(C(F)(F)F)c3c2CCCC3)cc1 31.6%
COc1ccc(OC)c(-c2noc(N3CCN(c4cccc(C)c4C)CC3)n2)c1 12.9%
COC(=O)CC1Oc2ccc(C)cc2-n2cc(-c3ccc(C)cc3)nc21 (configuration not stated) 5.21%
Cc1ccc(CSc2oc(-c3cccs3)nc2S(=O)(=O)c2ccc(C)cc2)cc1 -9.01%
COC(=O)c1ccccc1NC(=O)C1=C(C)C(=O)OC12CCC(C)CC2 (configuration not stated) -30.3%
CCc1ccc(NC(=O)Cn2c(=O)n(-c3cc(C)cc(C)c3)c(=O)c3oc4ccccc4c32)cc1 0.364%
COc1ccc(-c2nc(SCC(=O)Nc3ccc4c(c3)OCCO4)c(-c3ccccc3)[nH]2)cc1 -11.8%
COc1ccccc1Cn1cc(C(=O)c2ccc(C)cc2)c(=O)c2cc(F)cc(F)c21 14.6%
CCCN(CCC)C(=O)Cn1c(=O)n(Cc2ccc(C(=O)NCCc3ccc(Cl)cc3)cc2)c(=O)c2ccccc21 -16.3%
Cc1ccc2oc(C(=O)Nc3sc4c(c3C(=O)NCc3cccnc3)CCCC4)cc(=O)c2c1 -0.342%
CCOC(=O)/C(C#N)=C/c1ccc(-c2ccc(C)cc2)o1 -9.07%
Cc1ccc(-n2nc3c(=O)n(CCCC(=O)NC(C)c4ccccc4)nc(C)c3c2C)cc1 (configuration not stated) -7.62%
CC(C)CC(=O)Nc1nnc(S(=O)(=O)N2CCc3ccccc32)s1 4.96%
Cc1ccc(C(=O)Nc2ccc3[nH]c(=O)c(=O)[nH]c3c2)cc1 7.91%
CC(C)Oc1ccc(CNC(=O)Cn2c(-c3cccs3)cc3ccccc32)cc1 -6.54%
COc1cc(NC(=O)CC2C(=O)N(c3cccc(C)c3)C(=O)N2Cc2cccs2)cc(OC)c1 (configuration not stated) -18.8%
CCS(=O)(=O)N1CCc2cc(C(=O)NCCc3ccc(OC)c(OC)c3)ccc21 7.76%
COc1cccc(C(=O)Nc2ccc(S(=O)(=O)N(Cc3ccccc3)c3ccccc3)cc2)c1 6.82%
Cc1ccc(C2CCN(C(=O)Nc3ccc(C)c(C)c3)C2)cc1 (configuration not stated) -14.6%
Cc1ccc(C)c(N2CCN(c3nc4ccccc4c(=O)n3-c3ccccc3)CC2)c1 -9.94%
O=c1c2c3c(sc2n(Cc2ccc(F)cc2Cl)c(=O)n1-c1ccc(Cl)cc1)CCC3 14.2%
Cc1ccc(NC(=O)c2sc3ncnc(N(C)C4CCCCC4)c3c2C)cc1 -26.8%
Cc1cc(C)c(S(=O)(=O)NCCc2csc3nc(-c4ccc(Cl)cc4)nn23)c(C)c1 -7.47%
CC(=O)c1ccc(N2CCN(C(=O)C3CCN(S(=O)(=O)c4c(C)noc4/C=C/c4ccccc4F)CC3)CC2)cc1 -14.9%
Cc1ccccc1OCc1ccc(-c2nc(C#N)c(N3CCC(C(N)=O)CC3)o2)o1 0.852%
CCOc1ccc2cc(-c3nnc(Nc4ccc(C)cc4)s3)c(=O)oc2c1 3.5%
COc1cccc(Nc2nc3ccc(C(=O)c4ccccc4)cc3n3c(C)nnc23)c1 -1.34%
CCOc1ccc2c(c1)c(=O)c(S(=O)(=O)c1ccc(Cl)cc1)cn2Cc1ccccc1C -1.19%
CC(=O)Nc1ccc(S(=O)(=O)NCCS(=O)(=O)N2CCN(c3ccccc3F)CC2)cc1 -2.7%
O=C(Nc1ccc(Cl)c(-c2nc3cc(Cl)ccc3o2)c1)c1cc2ccccc2o1 -10.9%
Cc1ccc(C)c(CN2C(=O)c3ccccc3S(=O)c3ccc(C(=O)NCCC4=CCCCC4)cc32)c1 (configuration not stated) -6.88%
COc1ccc(CCC(=O)NCCc2csc(-c3cccc(C)c3)n2)cc1 -1.3%
Cc1ccccc1-c1nc(SCC(=O)N(C)c2ccccc2)c2c(=O)n(C)c(=O)n(C)c2n1 -17.1%
CCOC(=O)c1c(S(=O)(=O)NCC(=O)N(C)c2ccc(C)cc2)c(C)n(C)c1C -0.889%
Cc1ccccc1NS(=O)(=O)c1nnc(NC(=O)c2ccco2)s1 13.1%
CC(=O)c1ccc(NC(=O)Cn2cc3c(n2)CCCC3)cc1 -10.6%
CCc1ccc(S(=O)(=O)c2cn(CC)c3cc(N4CCOCC4)c(F)cc3c2=O)cc1 6.12%
O=C(O)c1cc(-c2ccc(C(F)(F)F)cc2)nc2n[nH]c(-c3ccccc3)c12 -23.9%
COc1ccc(Cl)cc1NC(=O)c1ccc2c(c1)CCCN2S(C)(=O)=O -13.6%
COc1ccccc1C(=O)Nc1nnc(S(=O)(=O)N(C)c2ccc(Cl)cc2)s1 -10.6%
CCOc1ccc(CN2CCN(c3ncnc4sc5c(c34)CC(C)CC5)CC2)cc1 (configuration not stated) -3.31%
CCOc1ccc2c(c1)c(=O)c(S(=O)(=O)c1ccccc1)cn2CC(=O)Nc1ccccc1OC -1.2%
Cc1ccc(CNC(=O)C2CCN(S(=O)(=O)c3ccc4c(c3)CCCN4C(=O)C3CCC3)CC2)cc1 -9.07%
CC(COc1ccc(/C=C/c2ccccc2)cc1)[N+](C)(C)C (configuration not stated) -9.63%
O=C(NCCSc1c(-c2ccccc2)[nH]c2ccccc12)c1ccc(S(=O)(=O)N2CCOCC2)cc1 -15%
Cc1ccccc1Cn1c(CN2CCC(C(=O)NCCN(C)C)CC2)cc2ccccc21 -18.1%
COc1ccc(NC(=O)CN2C(=O)CSc3ccc(S(=O)(=O)N4CCCC4)cc32)cc1OC -16.4%
CCOc1ccc(S(=O)(=O)N(CC(=O)NCCc2ccc(OC)c(OC)c2)c2ccccc2)cc1 -2.2%
COc1cccc(NC(=O)c2cc3c(=O)n(C)c4ccccc4c3n2C)c1 14.1%
CCCCNC(=O)c1cnn2c(C)c(Cc3c(F)cccc3Cl)c(C)nc12 -5.78%
Cc1ccccc1NC(=O)CN1C(=O)C(C)(C)c2ccccc21 -6.96%
Cc1cccc(C)c1NC(=O)Cn1c(=O)n(CCC(=O)NCc2ccccc2Cl)c(=O)c2sccc21 9.42%
COc1ccc(OC)c(CCNC(=O)c2c(C)oc3ncn(C)c(=O)c23)c1 -1.38%
COc1ccccc1NS(=O)(=O)c1cc2c(cc1Cl)NC(=O)CO2 6.91%
CCOc1ccc(CCNC(=O)CSc2cc(=O)n(C)c3ccc(Cl)cc23)cc1OCC -7.71%
c1ccc(C2CN3CCSC3=N2)cc1 (configuration not stated) -7.75%
O=C1CN(C(=O)Nc2ccccc2C(F)(F)F)C(c2ccccc2)c2c(sc3c2CCCC3)N1 (configuration not stated) -47.4%
CC(C)Oc1ccc(CNC(=O)c2ccc(Cn3c(=O)c4cccn4c4cccnc43)cc2)cc1 -0.866%
Cc1ccc(NC(=O)CSc2ccc(-c3sc(-c4ccccc4)nc3C)nn2)cc1F -14.3%
CCN1C(=O)C2(c3ccccc31)c1c(oc3ccc(F)cc3c1=O)C(=O)N2CCCOC (configuration not stated) -22.9%
CCCc1cnc2c(c1SCc1ccc(C(F)(F)F)cc1)c(=O)n(C)c(=O)n2C -8.85%
CN(C)S(=O)(=O)c1ccc(C(=O)Nc2ccc(-n3nncc3-c3ccccc3)cc2)cc1 -28.4%
COc1ccccc1N1CCN(C(=O)Cn2ncc3c(=O)oc4ccc(C)cc4c32)CC1 10.8%
Cc1cccc(N2CCN(C(=O)CCSCc3ccccc3F)CC2)c1C -26.4%
CC(=O)c1ccc(NC(=O)Cn2c(=O)n(Cc3ccco3)c(=O)c3sc4ccccc4c32)cc1 -9.79%
COc1ccc(-c2nsc(NC(=O)c3oc4cc(C)c(C)cc4c3C)n2)cc1 -13%
Cc1cccc(CNC(=O)c2cnc3sc(N4CCCCCC4)nn3c2=O)c1 -3.63%
Cc1ccc(N(Cc2cccs2)C(=O)COc2cccc(C)c2)cc1 -0.997%
CCN1CCN(c2cc(C)c3cc(NC(=O)c4cc(Cl)ccc4OC)ccc3n2)CC1 -11.4%
COc1ccc(C2=NC(C)(C)N(CC(=O)Nc3ccc(F)c(F)c3)C2=O)cc1 15.4%
Cc1nn2c(=O)cc(COC(=O)CNC(=O)c3ccc(F)cc3)nc2s1 6.51%

— PubChem BioAssay AID1346428 (National Center for Advancing Translational Sciences (NCATS), 2018)
